# According to ChEMBL document CHEMBL4888484, “Replenishing the malaria drug discovery pipeline: Screening and hit evaluation of the MMV Hit Generation Library 1 (HGL1) against asexual blood stage Plasmodium falciparum ,using a nano luciferase reporter read-out” (2022):
# About 540 (0.36%) of roughly 150,000 compounds showed an effect of 50% or more. The list shows a part of the results.
# Test system: Plasmodium falciparum
# Test: Primary screen in NF54 nanoGlo assay, in single point, at 2uM, 72h; a lower Z score goes with more inhibition
# Format: functional, Erythrocyte
# Settings: timepoint 72 hour
SMILES,% Inhibition,Z score
COc1ccccc1[C@@H](NC(=O)c1cnn(C(C)C)c1)c1ccco1,3%,-0.57
Cn1nc(C(=O)N(CCc2ccccc2)Cc2ccco2)ccc1=O,-3%,0.53
CN(C)Cc1ccc([C@@H]2CCCN2C(=O)c2scc3c2CCCC3)cc1,-2%,0.35
CCc1cccc(OCCN2CCO[C@H](C)[C@H]2C(N)=O)c1,-14%,2.42
CC(C)(C)C(O)CC(CO)NCc1cccs1 (stereo not given),-11%,1.15
NS(=O)(=O)Cc1ccc(OC(F)(F)F)cc1,-4%,0.52
O=C(c1cccs1)N1CCC2(CC1)C[C@@H](N1CCOCC1)CCO2,-9%,1.21
CCOc1ccccc1CN1C(=O)c2cc(-c3ccccc3)nn2C[C@@]1(C)C(=O)NCc1ccccc1,1%,-0.09
Cc1cc2c(cc1S(=O)(=O)N1CCN(C(=O)c3ccc(F)c(Cl)c3)CC1)O[C@@H](C)C(=O)N2,1%,-0.05
Cc1n[nH]c(C)c1CN(C)CCC(=O)NC(C)(C)C,3%,-0.43
c1cnn(CCN2CCOC3(CCCCCC3)C2)c1,-9%,0.85
Cc1cc(=O)c(C(=O)NCCC[C@H]2CCOC2)c(C)[nH]1,3%,-0.43
CCOc1ccccc1CN(Cc1c(C)nn(C(C)(C)C)c1C)C1CC1,4%,-0.72
Cc1nc(C(=O)N(c2cccc(C(F)(F)F)c2)[C@@H](C)C2CC2)cs1,6%,-1.01
CN(Cc1ccsc1)C(=O)c1cc2ccccc2[nH]1,58%,-6.32
COCC1(F)CCN(Cc2c(-c3ccc(OC)cc3)nc3cc(C)ccn23)CC1,-8%,1.12
CCC(C(=O)N1C2CCCC1COC2)c1ccccc1 (stereo not given),-13%,2.43
CNc1cc(-c2nc3c(c(NC)n2)CCC3)c2cc[nH]c2n1,-2%,0.29
O=C(NCCCN1CCCC1=O)c1ccoc1,-3%,0.37
CCCOc1cc(N2CCC(O)CC2)ccc1NC(=O)[C@@H](C)C1CC1,-5%,0.59
OCc1cccc(CNCc2c[nH]nc2-c2cccnc2)c1,-4%,0.34
COC[C@@H]1CCC[C@@H]1NC(=O)c1cnc(COc2ccccc2)nc1O,-15%,2.7

SMILES,% Inhibition,Z score
COC(C)(C)c1noc(-c2cccc3cc[nH]c23)n1,12%,-1.44
CCc1ocnc1C(=O)N1CC[C@@H]2OCc3cccc(c3)Oc3ccc(cc3OC)CCC(=O)N(CCCOC)CC(=O)N[C@@H]2C1,-1%,0.17
COc1ncccc1Cn1cnc(C)c(C)c1=O,4%,-0.53
CC[C@@H](Cn1ccnc1)Nc1ccc2ccccc2n1,-8%,0.88
O=c1[nH]cc(C(F)(F)F)cc1Br,-1%,0.19
COc1ccc(CN2C(C)COCC2C)cc1OCc1cccnc1 (stereo not given),6%,-0.71
COC(=O)c1cc(NC(=O)Nc2cc(C)n[nH]2)cc(Cl)c1F,-3%,0.37
C[C@@H](NC(=O)c1ccncc1Br)c1cc2ccccc2o1,3%,-0.62
Cc1cccc2[nH]cc(CCNC(=O)C(=O)Nc3cnn(CC(=O)N(C)C)c3)c12,-8%,1.31
C[C@@H]1CN(Cc2cncc(F)c2)C[C@H](C)N1Cc1cncc(F)c1,-7%,1.16
COc1cc(NCCCc2nnc3ccccn23)nc(N)n1,3%,-0.58
CCN(CC)CCNC(=O)CC1CCN(C(=O)c2ccc3nc(-c4ccccc4)oc3c2)CC1,-22%,2.62
Cc1noc(C)c1C(=O)NCc1nnc(N)s1,-10%,1.89
CCn1c(-c2cc(NC(=O)Cc3cccc(Cl)c3)[nH]n2)cc2ccc(OC)cc21,6%,-0.89
Cc1noc(C)c1S(=O)(=O)N[C@@H](C)C(=O)NCCc1cnc(C2CC2)nc1,-11%,1.61
CC(=O)N[C@@H](Cc1ccccc1F)C(=O)N1CCN(Cc2cccc(-c3noc(-c4cccc(C(F)(F)F)c4)n3)c2)CC1,-7%,0.7
CC(CC(=O)NC(C(N)=O)C(C)C)c1ccccc1Br (stereo not given),25%,-2.8
Cc1ccc(Cc2nnn(CC(O)CN3CC(C)OC(C)C3)n2)cc1 (stereo not given),-3%,0.36
CN(CCc1ccccn1)Cc1cccs1,1%,-0.19
Cc1cc(C(=O)Nc2cccc(CCN(C)C3CC3)c2)nc2nc(O)[nH]c(=O)c12,-11%,1.74
O=C(Nc1cc(C(F)(F)F)ccc1Cl)C1CCC(N2C(=O)c3ccccc3C2=O)CC1 (stereo not given),8%,-0.99
COc1cccc(NS(=O)(=O)c2ccc(-c3ccno3)o2)c1,-3%,0.53

SMILES,% Inhibition,Z score
COC(=O)c1cn(CC(=O)Nc2ccc3c(c2)OCO3)cc2c(O)nnc1-2,2%,-0.44
CON(C)C(=O)CCc1c(C)[nH]c(=O)c(C#N)c1C,11%,-1.18
COc1ncccc1-c1ccc(CN2CCCCC2)cn1,-5%,0.86
COc1ccc(-c2nnc3c4c(cnn23)nnn4Cc2ccccc2Cl)cc1,-7%,1.21
COCC1(NC(=O)c2nnc3nc(C)ccn23)CCCC1,1%,-0.13
C[C@@H](CO)NC(=O)c1cc2c(s1)CCC2,-37%,4.38
COc1ccc(CCC(=O)N2C[C@H](CNC(=O)N3CCCC3)C3(CCOCC3)C2)cc1,-4%,0.53
COc1ccc(N2CCN(C(=O)CC[C@@H]3NC(=O)c4ccccc4N=C3O)CC2)cc1,2%,-0.28
COc1ccc(CN(C(=O)N2CCOCC2)[C@@H](C)C2CC2)c(OC)c1,-8%,0.89
CCn1cc(S(=O)(=O)N2CC[C@H]3C(=O)NCCCCCCN(Cc4ccncc4)[C@@H]3C2)cn1,-13%,2.23
Cc1nc(-c2ccc(-c3cncnc3)s2)cs1,-11%,1.17
O=C(Nc1ccc(Oc2cccc3[nH]ccc23)nc1)[C@@H]1CCCO1,14%,-1.61
O=C(NCCc1ccc(F)cc1)c1cc2c(cc1O)OCO2,-9%,1.2
CNC(=O)COc1ccc(Br)cc1C,2%,-0.25
Cc1ccccc1S(=O)(=O)NCc1noc(CC(C)C)n1,-15%,1.9
O=S1(=O)CC[C@H](Nc2nc(C(F)(F)F)ns2)CC12CCC2,-6%,0.63
CCn1ccnc1CN(C)C(=O)NCc1ccc(OC(C)C)c(OC)c1,4%,-0.65
Cn1cc(N2C[C@@H](C(=O)N3CCOCC3(C)C)CCC2=O)cn1,-1%,0.24
CC1(C)CNc2cc(F)c(Br)cc21,-7%,0.78
COc1ncc(CN2CCC[C@H](CN3CCOCC3)C2)cn1,-14%,2.06
CN(CCc1ccccn1)[C@H]1CCN(Cc2cc(C#CCO)cs2)C[C@@H]1O,-7%,0.87
O=C([C@@H]1CCCc2[nH]cnc21)N1CCCN(CC2CCC2)CC1,-3%,0.29

SMILES,% Inhibition,Z score
C[C@H](Oc1cccnc1)C(=O)N1CCC(CN2CCNC2=O)CC1,2%,-0.27
Cc1scc2nc(C(=O)NCCN3CCCCC3)nc(N(C)C)c12,15%,-1.75
Cc1nc(C(NC2CCOC2)c2ccc(Cl)c(F)c2)no1 (stereo not given),-19%,2.75
CC(C)NC(=O)N1CCN(c2ccc(Cl)c(NC(=O)CN(Cc3ccc(F)cc3)C(=O)C(C)C)c2)CC1,-17%,1.83
Cn1cc(CCN2CCC(C(=O)N3CCC(Cc4ccccc4)CC3)CC2)c2cccnc21,-17%,1.94
CC(C)(C)OC[C@@H](O)CN1CCN(Cc2nc(C(=O)Nc3cccc(F)c3)co2)CC1,-4%,0.56
Nc1nc(N[C@@H]2COCC[C@@H]2OCC2CC2)c2cn[nH]c2n1,-2%,0.29
Cc1ccc2[nH]c(=O)cc(C(=O)N3CC[C@](C)(O)[C@H](O)C3)c2c1,-6%,0.61
CC(C)c1nccc(-c2nccn2CCN2CCNC2=O)n1,5%,-0.71
CCOc1cc(C(=O)Nc2cnn(-c3ccncc3)c2)ccc1C,10%,-1.15
O=C(Nc1ccc(Cl)cc1)N1CCCN(Cc2ccc(F)cc2)C1,-6%,0.97
O=C(CCc1cc2n(n1)CCCN(Cc1ccncc1)C2)N1CCCC1,-11%,1.17
CC(C)(O)CCc1ccc(C(=O)N2CC[C@H]2c2ccc(F)cc2)cc1,-3%,0.36
Cc1n[nH]cc1Nc1ccc(Cl)c(C#N)n1,-19%,1.62
C#CCNC(=O)[C@H](C)N(C)Cc1ccc(Br)o1,0%,0.01
Nc1nc(C(F)(F)F)nc(C(F)(F)F)n1,0%,-0.07
O=C(c1cccnc1)N(Cc1ccco1)C1CC1,-5%,0.45
COCCOCCNc1cc(NC(C)=O)ccc1Cl,-13%,2.02
COc1cc(C(=O)Nc2cccc(-c3nc(C)cc(=O)[nH]3)c2)ccc1OCc1cscn1,-2%,0.29
